{"source": "patent US20200362047A1", "about": "(CRESCENDO BIOLOGICS, published 2020)", "binders": {"B1": {"name": "3.8-6GS-1.1 (bispecific antibody)", "chain": "EVQLLESGGGLVQPGGSLRLSCAASGFSFSSYALSWVRQAPGKGLEWVSSIGENDGTTDYAD[not shown - about 20 residues]MNSLRVEDTAVYYCVKDGVHWGQGTLVTVSSGGGGSGGGGSGGGGSGGGGSGGGGSGGGGSEVQLVESGGGLVQPGGSLRLSCAASGFTFSSHWMTWFRQAPGKGLEWVAHIKEDGSEKYYEDSVEGRFTVSRDNAKNSVYLQMNSLRAEDTAVYYCARGGDGYSDSHFGVDVWGQGTTVTVSS", "notes": "tandem VH, PSMA x CD137; not shown: His tag"}, "B2": {"name": "PSMA binding single VH domain antibody 3.8 (VHH)", "VHH": "EVQLLESGGGLVQPGGSLRLSCAASGFSFSSYALSWVRQAPGKGLEWVSSIGENDGTTDYAD[not shown - about 20 residues]MNSLRVEDTAVYYCVKDGVHWGQGTLVTVSS", "notes": "human single VH domain, PSMA specific"}, "B3": {"name": "1.1-6GS-3.8 (bispecific antibody)", "chain": "EVQLVESGGGLVQPGGSLRLSCAASGFTFSSHWMTWFRQAPGKGLEWVAHIKEDGSEKYYEDSVEGRFTVSRDNAKNSVYLQMNSLRAEDTAVYYCARGGDGYSDSHFGVDVWGQGTTVTVSSGGGGSGGGGSGGGGSGGGGSGGGGSGGGGSEVQLLESGGGLVQPGGSLRLSCAASGFSFSSYALSWVRQAPGKGLEWVSSIGENDGTTDYAD[not shown - about 20 residues]MNSLRVEDTAVYYCVKDGVHWGQGTLVTVSS", "notes": "built from its printed name (1.1, 6GS linker, 3.8); not shown: His tag"}, "B4": {"name": "3.8-6GS-1.1-6GS-MSA (bispecific antibody)", "chain": "EVQLLESGGGLVQPGGSLRLSCAASGFSFSSYALSWVRQAPGKGLEWVSSIGENDGTTDYAD[not shown - about 20 residues]MNSLRVEDTAVYYCVKDGVHWGQGTLVTVSSGGGGSGGGGSGGGGSGGGGSGGGGSGGGGSEVQLVESGGGLVQPGGSLRLSCAASGFTFSSHWMTWFRQAPGKGLEWVAHIKEDGSEKYYEDSVEGRFTVSRDNAKNSVYLQMNSLRAEDTAVYYCARGGDGYSDSHFGVDVWGQGTTVTVSSGGGGSGGGGSGGGGSGGGGSGGGGSGGGGSQVQLVESGGGLVQPGGSLRLSCAASGFTFSSYAMSWVRQAPGKGLEWVATISDSGSSADYADSVKGRFTISRDNSKNTLYLQMNSLRAEDTAVYYCARGRYNWNPRALGIWGQGTMVTVSS", "notes": "trispecific tandem VH (PSMA, CD137, mouse serum albumin); also called 3.8-6GS-1.1-VH (MSA); not shown: His tag"}}, "key": {"[1]": {"molecular_target": "T1, human CD137 expressed on the surface of CHO cells (human, UniProt Q07011 24-255)", "T1 construct": "Also used for the Jurkat reporter cells that express human CD137 (functional rows); also called CHO human CD137 cells; CHO huCD137", "test": "FMAT ligand inhibition, CD137 Ligand on CHO human CD137 cells", "description": "In parallel to the binding assay, periplasmic extracts were tested for their ability to inhibit the interaction of human CD137 ligand protein with CHO human CD137 cells in an FMAT format. Total binding controls containing diluted periplasmic extract sample buffer and non-specific binding controls containing excess non-Fc tagged competitor were set up on each plate for data normalisation. Fluorescence signal was measured using the TTP Mirrorball and the FL2 median mean fluorescence intensity of gated used for the data normalisation. The data was expressed as a % of the total binding control (% control) after subtraction of the background signal determined from the non-specific binding control wells.\nThe ability of purified Humabody VH to inhibit the binding of CD137 Ligand to CHO human CD137 cells was measured in the FMAT ligand inhibition assay essentially as described in Example 6. VH inhibited the binding of human CD137 Ligand to human CD137."}, "[2]": {"molecular_target": "T2, CD137 on pre-stimulated human CD8+ T cells (human, UniProt Q07011 24-255)", "T2 construct": "also called pre-stimulated CD8+ cells; primary T cells", "test": "flow cytometry, PMA/ionomycin-stimulated human CD8+ T cells, mean of 2-3 donors", "description": "Binding to primary T cells was measured using flow cytometry. Peripheral blood mononuclear cells (PBMCs) were isolated from human blood by density gradient centrifugation then CD8+ T cells purified using a negative selection isolation kit according to the manufacturer's protocol (Miltenyi Biotech cat no 130-042-401). T-cells were stimulated PMA/Ionomycin for 48-72 hours in RPMI media supplemented with 10% FBS, 2 mM Glutamine, 1× Pen/Strep. Cells were transferred into 96 well plates, blocked for 10 mins with staining buffer (PBS/1% BSA/0.05% Sodium Azide) then incubated with serially diluted VH in staining buffer (PBS/1% BSA) for 30 mins-1 hour at 4° C. Cells were washed by centrifugation then VH binding detected using Anti His antibody (Millipore 05-949) and Goat Anti Mouse Alexa Fluor-488 (Jackson ImmunoResearch cat no. 115-545-071). A Live Dead near IR stain (Molecular Probes cat no. L10119) was used for discrimination of live cells. After further washing cells were fixed and fluorescence measured by flow cytometry."}, "[3]": {"molecular_target": "T3, human CD137-human Fc chimeric protein (Acro Biosystems cat no. 41B-H5258) (human, UniProt Q07011 24-186)", "T3 construct": "Bought protein; The Octet Protein G and Biacore experiments name no catalogue number; also called human CD137Fc recombinant protein; human CD137-Fc recombinant protein; not shown: human IgG1 Fc tag", "test": "BLI (Octet RED384), CD137-Fc amine-coupled to AR2G sensors, 1:1 model", "description": "(§1) The kinetics of monovalent and bispecific Humabody VH were determined on a ForteBio Octet RED 384 instrument. To study the interaction with the antigens, CD137-Fc tag protein (Acro Biosystems cat no. 41B-H5258) or PSMA-his (R&D Systems cat no. 4234-ZN) was immobilised onto AR2G biosensors (ForteBio cat no. 18-5082) by amine coupling. Monovalent VH and bispecific molecules were serially diluted (typically 1:2 dilution series starting between 12-25 nM, at the highest concentration) in kinetics buffer (0.1% BSA, 0.02% Tween, 1×PBS) and binding to the immobilised proteins was studied during the association and dissociation phases. PSMA binding was measured using 180 seconds association and 600 seconds dissociation phases. CD137 binding was measured 180 seconds association and 600 seconds dissociation phases. Reference subtracted data were fitted to a 1:1 binding model using the ForteBio Octet Data Analysis software."}, "[4]": {"molecular_target": "T4, human PSMA expressed on cells (human, UniProt Q04609)", "T4 construct": "One molecule for both cell lines (CHO human PSMA, DU145 PSMA); the cell line stands under assay; also called CHO human PSMA; CHO PSMA", "test": "FMAT, DU145 PSMA cells", "description": "(§2) Binding of His-tagged molecules to CHO human CD137, CHO parent, CHO human PSMA, DU145 PSMA and DU145 parent cells was assessed using Fluorescence Microvolume Assay Technology (FMAT). All reagents were prepared in FMAT assay buffer (pH 7.4) containing PBS, 0.1% Bovine Serum Albumin, 0.05% Sodium Azide. Serially diluted samples were transferred into 384 well black clear-bottomed assay plates (Costar cat. no. 3655) and incubated for a minimum of 2 hours at room temperature with 1.5 nM Anti-His (Millipore cat. no. 05-949), […] Goat Anti-Mouse Alexa Fluor-488 (Jackson ImmunoResearch cat. no. 115-545-071) and 2000 cells/well pre-stained with DRAQ5 (Thermo Scientific cat. no. 62251). Fluorescence emission was then measured on the TTP Mirrorball plate reader in the FL2 (502 nm-537 nm) and FL5 (677-800 nm) channels following excitation at 488 nm and 640 nm. Data was gated on FL5 perimeter and peak intensity and the FL2 median mean fluorescence intensity of the gated data used for determination of VH binding. Monovalent CD137 specific Humabody® VH, bispecific and trispecific molecules with a CD137 binding arm bound to CHO CD137 expressing cells. Monovalent PSMA specific Humabody® VH, bispecific and trispecific molecules with a PSMA binding arm bound to PSMA expressing cells."}, "[5]": {"molecular_target": "T1, human CD137 expressed on the surface of …", "test": "FMAT, CHO human CD137 cells", "description": "as §2"}, "[6]": {"molecular_target": "T4, human PSMA expressed on cells", "T4 sequence (Q04609 whole entry)": "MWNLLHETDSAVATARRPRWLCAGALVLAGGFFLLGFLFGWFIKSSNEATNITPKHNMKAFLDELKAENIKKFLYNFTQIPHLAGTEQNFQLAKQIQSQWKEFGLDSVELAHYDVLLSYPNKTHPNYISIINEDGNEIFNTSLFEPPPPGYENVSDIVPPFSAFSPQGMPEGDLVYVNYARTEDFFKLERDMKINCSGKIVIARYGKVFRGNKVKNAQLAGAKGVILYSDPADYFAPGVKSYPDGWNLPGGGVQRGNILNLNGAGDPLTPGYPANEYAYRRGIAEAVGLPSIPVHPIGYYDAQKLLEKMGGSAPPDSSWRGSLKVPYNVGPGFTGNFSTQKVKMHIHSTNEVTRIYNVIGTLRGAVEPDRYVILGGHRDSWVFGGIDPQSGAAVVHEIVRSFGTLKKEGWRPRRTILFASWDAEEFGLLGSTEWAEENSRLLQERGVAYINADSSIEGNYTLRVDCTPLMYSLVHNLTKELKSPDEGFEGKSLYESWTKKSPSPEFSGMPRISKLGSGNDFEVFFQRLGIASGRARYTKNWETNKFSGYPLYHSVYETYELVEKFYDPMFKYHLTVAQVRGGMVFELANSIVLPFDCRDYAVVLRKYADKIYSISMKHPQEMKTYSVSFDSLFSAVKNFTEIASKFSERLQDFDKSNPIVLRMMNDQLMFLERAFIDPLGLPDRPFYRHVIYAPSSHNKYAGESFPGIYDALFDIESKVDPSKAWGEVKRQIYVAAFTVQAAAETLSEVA", "test": "FMAT, CHO human PSMA cells", "description": "as §2"}, "[7]": {"molecular_target": "T5, PSMA-his (R&D Systems cat no. 4234-ZN) (human, UniProt Q04609)", "T5 construct": "Bought protein; also called Human PSMA; not shown: His tag", "test": "BLI (Octet RED384), PSMA-his amine-coupled to AR2G sensors, 1:1 model", "description": "as §1"}}}
{"binder": "B1", "values": [{"measurement": "IC50", "setting": "[1]", "value": 1.7, "unit": "nM"}, {"measurement": "EC50", "setting": "[2]", "value": 1.1, "unit": "nM"}, {"measurement": "Kd", "setting": "[3]", "value": 0.56, "unit": "nM"}, {"measurement": "koff", "setting": "[3]", "value": 0.00029, "unit": "s⁻¹"}, {"measurement": "kon", "setting": "[3]", "value": 490000, "unit": "M⁻¹ s⁻¹"}, {"measurement": "EC50", "setting": "[4]", "value": 0.68, "unit": "nM"}, {"measurement": "EC50", "setting": "[5]", "value": 0.56, "unit": "nM"}, {"measurement": "EC50", "setting": "[6]", "value": 0.6, "unit": "nM"}, {"measurement": "Kd", "setting": "[7]", "value": 5.7, "unit": "nM"}, {"measurement": "koff", "setting": "[7]", "value": 0.0017, "unit": "s⁻¹"}, {"measurement": "kon", "setting": "[7]", "value": 300000, "unit": "M⁻¹ s⁻¹"}]}
{"binder": "B2", "values": [{"measurement": "EC50", "setting": "[4]", "value": 0.29, "unit": "nM"}, {"measurement": "EC50", "setting": "[6]", "value": 0.23, "unit": "nM"}, {"measurement": "Kd", "setting": "[7]", "value": 0.9, "unit": "nM"}, {"measurement": "koff", "setting": "[7]", "value": 0.00035, "unit": "s⁻¹"}, {"measurement": "kon", "setting": "[7]", "value": 390000, "unit": "M⁻¹ s⁻¹"}]}
{"binder": "B3", "values": [{"measurement": "IC50", "setting": "[1]", "value": 1.3, "unit": "nM"}, {"measurement": "EC50", "setting": "[4]", "value": 0.81, "unit": "nM"}, {"measurement": "EC50", "setting": "[5]", "value": 0.56, "unit": "nM"}, {"measurement": "EC50", "setting": "[6]", "value": 0.63, "unit": "nM"}]}
{"binder": "B4", "values": [{"measurement": "EC50", "setting": "[4]", "value": 0.82, "unit": "nM"}, {"measurement": "EC50", "setting": "[5]", "value": 0.59, "unit": "nM"}, {"measurement": "EC50", "setting": "[6]", "value": 0.59, "unit": "nM"}]}
